Laboratory results reported in PubChem BioAssay AID1240 (Sanford-Burnham Center for Chemical Genomics, 2008).
In all, about 50,000 compounds went through this assay and about 800 (1.6%) showed an effect of 50% or more. The list shows a part of the results.

The compounds below were run against Bcl-2-like protein 10 (Homo sapiens) (UniProt Q9HD36) (assay: Phenotype converters, Bcl-B/TR3 peptide binding displacement, primary biochemical FP (AID 1240;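 also: 0% = Bcl-B with tracer peptide and DMSO and 100% = tracer peptide lacking Bcl-B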)). Conditions: GST-Bcl-B / FITC-TR3 peptide fluorescence polarization; stronger effect = higher value; compound at 3.75 mg/L.
UniProt Q9HD36, sequence (Q9HD36 whole entry, looked up): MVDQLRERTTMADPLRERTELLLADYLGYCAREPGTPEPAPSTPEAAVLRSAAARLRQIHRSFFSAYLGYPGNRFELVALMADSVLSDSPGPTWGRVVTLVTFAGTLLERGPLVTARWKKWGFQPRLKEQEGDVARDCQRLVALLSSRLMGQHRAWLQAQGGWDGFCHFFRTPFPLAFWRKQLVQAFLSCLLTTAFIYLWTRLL

Compound	displacement [%]
Cc1cc(OCC(=O)Nc2ccc(F)c([N+](=O)[O-])c2)ccc1Cl	7.6
O=C(O)CCN1C(=O)/C(=C/c2ccc(Cl)c([N+](=O)[O-])c2)SC1=S	16.5
COc1ccccc1/C=N/Nc1nc(-c2ccccc2)nc(C)c1C	-3.8
O=C(Cc1nnc(NC(=O)Nc2ccccc2)s1)Nc1ccccc1	4.5
CC(C)CCc1c(O)nc(SCCN(C)C)[nH]c1=O	-5.6
Cc1ccc(C(=O)NC(=S)Nc2ncc(C(F)(F)F)cc2Cl)cc1	-10.6
COCCCNC(=O)c1ccc(C(=O)NCCCOC)cc1	-6.5
CCOc1ccc(NC(=O)C(C)Sc2ccc(Cl)cc2)cc1 (centres undefined)	-0.7
OC(COCc1ccc(Cl)cc1)CSc1nc2ccccc2s1 (centres undefined)	-4.5
c1cnc(Nc2nc(-c3cccnc3)cs2)nc1	12.8
N=C(SC1CC(=O)N(c2cccc3ccccc23)C1=O)N1N=C(c2cccs2)CC1c1ccc(Br)cc1 (centres undefined)	85.7
Cc1ccc([N+](=O)[O-])cc1NC(=O)C1CC1	-2.5
Cc1cc(OCC(=O)Nc2c(C)cc(Br)cc2C)ccc1Cl	10.5
COc1ccc(C2CC(=O)C3=C(C2)Nc2ccccc2NC3c2coc3ccccc3c2=O)cc1OC (centres undefined)	-2.3
O=c1[nH]n(-c2ccc(Cl)cc2)c(O)c1/C=C1\C=Nc2ccccc21	11.4
O=C(O)c1ccc(CNC(=O)C2C3CCC(C3)C2C(=O)O)cc1 (centres undefined)	-3.4
O=C(O)C1=C2C(=O)Nc3cccc(c32)C2(C1)C(=O)Nc1ccccc12 (centres undefined)	21.1
CN(/C=C/C=C1\CC/C(=C\C=C\N(C)c2ccccc2)C1=O)c1ccccc1	5.5
Cc1ccc(-c2nc3cc(Cl)ccc3o2)cc1NC(=O)c1ccc2c(c1)OCCO2	102
Cc1cc(COc2ccccc2OCc2cc(C)no2)on1	1.2
Cc1nnc2c3c4c(sc3nc(-c3ccccc3)n12)COC(C)(C)C4	-3
O=C1N=c2ccccc2=C1c1sc(=O)n(-c2cccc(O)c2)c1O	-5.8
Cc1cccc(NC(=O)CSc2nc3ccc(N4C(=O)c5ccccc5C4=O)cc3s2)c1C	13.2

Compound	displacement [%]
Cc1cccc(Cl)c1OCCOCCNCCO	-4.8
O=C1c2ccccc2C(=O)N1c1cccc2ncccc12	-3.4
Cc1cn(S(=O)(=O)c2ccc(Cl)cc2)c(C)n1	-6
COc1ccc(-n2nnnc2C(=Cc2ccc(N(C)C)cc2)c2nnnn2-c2ccc(OC)cc2)cc1	157
CC1=C(C(=O)OC(C)C)C(c2ccc(C(C)C)cc2)NC(=O)N1 (centres undefined)	7.9
O=C1c2ccccc2C(=O)C1(Nc1ccc2c(c1)oc1ccccc12)c1ccccc1	-6.3
COc1ccc(C2CC(=O)C3=C(C2)OC2=C(C(=O)CC(c4ccc(OC)cc4)C2)C3c2ccc(OC)c(OC)c2)cc1 (centres undefined)	5.4
COc1ccc(Cc2c(O)nc(SCC(C)C)[nH]c2=O)cc1	3.1
COc1ccc(C2/C(=C(\O)c3ccccc3)C(=O)C(=O)N2Cc2cccnc2)cc1 (centres undefined)	9.4
COc1cc(C(c2c(C)[nH]c3ccccc23)c2c(C)[nH]c3ccccc23)ccc1O	2.2
COC(=O)C1=C(C)N(c2ccc(C)cc2)/C(=C\c2ccc(OCC(=O)Nc3ccccc3)cc2)C1=O	11.6
COc1cccc(/C=c2/sc3nc4ccccc4n3c2=O)c1	92.4
O=C(CN(c1ccccc1)S(=O)(=O)c1ccccc1[N+](=O)[O-])N1CCOCC1	3.2
OC(COc1ccccc1)CSc1nc2ccccc2s1 (centres undefined)	-13.3
COC(=O)c1ccc(-c2ccc(/C=c3/sc4nc5ccccc5n4c3=O)o2)cc1	16.2
O=C(COC(=O)c1ccc(C#Cc2ccccc2)cc1)c1ccc([N+](=O)[O-])cc1	-3.8
CCOC(=O)C1=NNC2C(=O)N(c3ccc(F)cc3)C(=O)C12 (centres undefined)	8
Cc1ccc(C(=O)NC(C(=O)NC(C)(C)C)C23CC4CC(CC(C4)C2)C3)cc1 (centres undefined)	-13.8
COc1ccc(CCN(C(=O)CCC(=O)O)C2CC(=O)N(c3ccc(Cl)cc3)C2=O)cc1 (centres undefined)	4
CCOc1ccc(C=NN2CCN(c3ccc(Cl)cc3)CC2)cc1	-5.4
O=c1cc(C(F)(F)F)oc2ccccc12	-1.8
O=C(Cc1csc(-c2ccccc2)n1)Nc1ccc(Br)cc1	-4.7
O=C(CSc1nc2sc3c(c2c(=O)[nH]1)CCCC3)N1CCN(CCO)CC1	-1.5

Compound	displacement [%]
COc1ccccc1NC(=O)c1ccc(Cl)cc1Cl	8
Cc1cccc(C(=O)N2CCN(c3ccccn3)CC2)c1	-4.2
O=C(Nc1cc([N+](=O)[O-])ccc1Cl)c1cc(-c2ccc(Cl)cc2)nc2ccccc12	13.6
O=C(NC(c1ccccc1)c1ccccc1)C1CC1c1ccccc1 (centres undefined)	10.8
Clc1ccc(-c2nnc(-c3sc4ccccc4c3Cl)o2)cc1	3.2
COc1cc(/C=C2\SC(=S)N(C(Cc3ccccc3)C(=O)O)C2=O)ccc1O (centres undefined)	9.5
O=Cc1ccc(-c2cc(C(F)(F)F)cc(C(F)(F)F)c2)o1	-10.5
O=C1NN(c2ccc(Cl)c(Cl)c2)C(=O)/C1=C/c1ccc(Cl)cc1	2.3
O=C1c2ccccc2S(=O)(=O)N1c1c(F)c(F)c(C(F)(F)F)c(F)c1F	12.4
O=[N+]([O-])c1ccc(N2CCN(S(=O)(=O)c3ccc4ccccc4c3)CC2)cc1	12.7
CC(=O)c1cccc(NC(=O)c2cccc(C)c2)c1	3.3
CCCC1=NN(C(=O)Cc2ccc(OC)c(OC)c2)C(O)(C(F)(F)F)C1 (centres undefined)	-13.9
CCOc1ccccc1NS(=O)(=O)c1cc(Cl)ccc1Cl	-14.2
CCC(=O)Nc1cccc(NC(=O)c2ccc(C(C)(C)C)cc2)c1	0.9
O=C(N/N=C/c1ccc(OCc2ccccc2)cc1)c1ccc[n+](Cc2ccccc2)c1	11.1
COc1ccc(NC(=O)C(=O)NCc2ccco2)cc1Cl	9.2
O=c1[nH]c(=O)n(Cc2ccccc2)cc1Cl	0.6
CC(C)CN1C(=O)/C(=C/c2cccc(Oc3ccccc3)c2)SC1=S	12.4
Cc1ccc2cccc(OC(=O)c3oc4ccccc4c3C)c2n1	17.6
COc1ccc(NC(=O)N2CCOCC2)c(OC)c1	1
NC(=O)NC(c1ccccc1)c1ccccc1Cl (centres undefined)	5.4
Cc1csc(NC(=O)c2cnccn2)n1	-0.6
Cc1ccc(C(=O)NCCNc2ccc(C(F)(F)F)cc2[N+](=O)[O-])cc1	10.6
